# Source: PMC4336329 (PLoS ONE, 2015)
# In all, about 310,000 compounds went through this assay and about 14,000 (4.5%) showed an effect of 50% or more. The effect is printed as a negative number. This is one part of the list.
# Target: human ether-à-go-go-related gene (hERG) potassium channel (human, UniProt Q12809)
# Assay: primary screen, population patch clamp on CHO cells stably expressing hERG
# 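Further: peak tail current of the secondary pulse compared with the same well before compound.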
# human ether-à-go-go-related gene (hERG) potassium channel, sequence (Q12809 whole entry, looked up): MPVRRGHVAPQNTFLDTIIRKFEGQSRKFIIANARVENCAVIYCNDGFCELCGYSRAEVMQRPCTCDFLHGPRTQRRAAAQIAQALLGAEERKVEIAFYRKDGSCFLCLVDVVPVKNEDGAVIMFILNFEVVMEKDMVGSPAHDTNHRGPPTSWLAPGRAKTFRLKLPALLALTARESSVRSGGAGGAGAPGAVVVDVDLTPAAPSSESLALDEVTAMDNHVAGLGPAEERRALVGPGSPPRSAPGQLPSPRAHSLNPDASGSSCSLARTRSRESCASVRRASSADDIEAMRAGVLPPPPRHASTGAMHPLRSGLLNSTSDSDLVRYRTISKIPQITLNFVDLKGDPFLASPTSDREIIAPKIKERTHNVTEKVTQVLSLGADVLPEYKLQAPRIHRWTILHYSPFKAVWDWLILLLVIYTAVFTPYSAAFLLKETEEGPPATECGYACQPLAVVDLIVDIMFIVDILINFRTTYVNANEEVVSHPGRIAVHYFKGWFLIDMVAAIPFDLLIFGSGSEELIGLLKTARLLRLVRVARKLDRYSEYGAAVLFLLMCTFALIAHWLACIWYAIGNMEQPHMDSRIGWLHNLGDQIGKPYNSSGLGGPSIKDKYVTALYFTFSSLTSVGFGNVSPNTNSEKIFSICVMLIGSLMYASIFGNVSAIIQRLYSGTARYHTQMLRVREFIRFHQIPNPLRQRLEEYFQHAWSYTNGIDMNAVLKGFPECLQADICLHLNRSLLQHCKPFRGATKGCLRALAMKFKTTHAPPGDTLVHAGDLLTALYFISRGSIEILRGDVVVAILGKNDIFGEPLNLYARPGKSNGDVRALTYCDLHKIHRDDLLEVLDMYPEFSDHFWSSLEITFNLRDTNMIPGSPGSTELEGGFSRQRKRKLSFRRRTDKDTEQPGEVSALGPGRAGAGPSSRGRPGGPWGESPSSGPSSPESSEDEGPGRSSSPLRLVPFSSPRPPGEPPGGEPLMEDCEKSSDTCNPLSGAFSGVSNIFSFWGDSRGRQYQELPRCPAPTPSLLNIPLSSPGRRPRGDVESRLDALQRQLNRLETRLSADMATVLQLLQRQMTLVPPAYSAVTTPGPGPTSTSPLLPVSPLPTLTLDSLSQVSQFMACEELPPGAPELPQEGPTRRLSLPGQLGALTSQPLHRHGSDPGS
row,Compound,"hERG current change (%, negative = inhibition) at 10uM [%]"
1,COc1ccc(C)cc1NC(=O)CN(c1ccc(C)cc1)S(C)(=O)=O,1.61
2,COc1ccccc1C(=O)COC(=O)CN1C(=O)c2ccccc2C1=O,21.2
3,CCN(CC)S(=O)(=O)c1ccc(N2CCCC2)c(NC(=O)c2ccc(OC)cc2OC)c1,-43
4,COc1ccc(C(NC(=O)c2ccccc2F)NC(=O)c2ccccc2F)cc1,-1.3
5,CCN(CC(=O)Nc1c(F)cccc1F)C(=O)c1ccccc1F,20.3
6,O=C(C1CC1)N1CCN(c2ccc(O)cc2)CC1,-17.3
7,CCOCCCNC(=O)/C(C#N)=C/c1ccccc1F,23.5
8,CCOc1ccccc1N1CC(C(=O)Nc2cccc(S(=O)(=O)N3CCCCC3)c2)CC1=O (centres unmarked),-1.95
9,Cc1ccc(S(=O)(=O)Nc2cc(S(=O)(=O)N3CCCCC3)ccc2N2CCOCC2)cc1,28
10,CCCNC(=O)c1ccc(N2CCC3(CC2)CC(c2cccc(Br)c2)=NO3)c(NC(=O)c2c(Cl)cccc2Cl)c1,5.92
11,COc1ccc(CN2CCN(C(c3ccc(F)cc3)c3ccc(F)cc3)CC2)c(OC)c1OC.Cl,-13.3
12,CCOc1ccc(N=C2Sc3nc4ccc(C)cc4cc3CN2CCOC)cc1,41.4
13,C/C(=N\NC(=O)C1CCCN(S(=O)(=O)c2ccccc2)C1)c1ccccn1 (centres unmarked),-20.8
14,Fc1ccc(-c2nc3ccccn3c2NCc2ccc3c(c2)OCO3)cc1,-24.3
15,CC(C)CCNC(=O)C1(c2cccs2)CCOCC1,6.48
16,Cc1ccc(CNC(=O)CSc2nccn(-c3ccc(C)c(F)c3)c2=O)cc1,0.718
17,COC(=O)c1ccccc1NC(=O)NC1CCCCC1,5.86
18,COc1cccc(/C=N/Nc2cc(Cl)nc(C)n2)c1O,20.8
19,CCOC(=O)c1cnn(-c2cc(C)nc3c(-c4ccccc4)cnn23)c1N,-18
20,CC(C)OP(=O)(OC(C)C)C(NC(=O)c1ccc(Br)cc1)c1ccccc1 (centres unmarked),-35.8
21,Cc1ccc(NC(=O)C(C)OC(=O)CCC2CCCCC2)cc1 (centres unmarked),-12.6
22,COc1ccccc1N=Nc1nc(-c2ccccc2)c(-c2ccccc2)[nH]1,-1.04
23,COc1cccc(N(C(=O)CNC(=O)c2ccco2)C(C(=O)NC2CCCC2)c2ccncc2)c1 (centres unmarked),5.05

row,Compound,"hERG current change (%, negative = inhibition) at 10uM [%]"
1,CCOC(=O)Cc1csc(SCC(=O)NC2CCS(=O)(=O)C2)n1 (centres unmarked),15.2
2,C=Cc1ccc(COC(=O)c2cn(CC)c3nc(C)ccc3c2=O)cc1,-45.4
3,C[C@H]1CN=C(N(C)C)N1CCCCc1ccccc1,-25.5
4,COc1cc(Cl)c(C)cc1NC(=O)CCCn1c(=O)oc2ccccc21,-58.7
5,COC(=O)c1sccc1NC(=O)COc1ccc(Cl)cc1Cl,5.48
6,CC(C)c1nnc(NC(=O)CS(=O)(=O)c2ccccc2)s1,13.1
7,COc1ccc(C(=O)Nc2nnc(CC(=O)N/N=C/c3ccc(O)cc3O)s2)cc1,14
8,CCOc1ccc2nc(NCCCNS(=O)(=O)c3ccccc3)c(C#N)cc2c1,-19.2
9,CCN(Cc1ccncc1)C(=O)CCc1ccccc1,6.16
10,O=C(NCc1ccc(Cl)cc1)c1ccc(Cl)cc1[N+](=O)[O-],0.453
11,CC1(C)Cc2c(C#N)c(NCCCO)nc(-c3ccccc3)c2CO1,-56
12,COc1cc(C(=O)Nc2ccc(OCC(=O)O)cc2)cc(OC)c1OC,17.8
13,O=C(C1COc2ccccc2O1)N1CCN(Cc2ccc3c(c2)OCO3)CC1 (centres unmarked),-36.7
14,CC(=O)c1ccc(Sc2ccccn2)c([N+](=O)[O-])c1,2.26
15,COc1cccc(-c2cc(C(F)(F)F)n3nc(C(=O)N4CCCCC4c4cccnc4)cc3n2)c1 (centres unmarked),-23.1
16,O=C(COC(=O)CCN1C(=O)c2ccccc2C1=O)Nc1ccc(S(=O)(=O)N2CCCC2)cc1,-21.9
17,O=[N+]([O-])c1ncccc1Oc1nc(-c2cccnc2)nc2ccccc12,15.3
18,Cc1ccc(N2CC(C(=O)N3CCCCC3)CC2=O)cc1C (centres unmarked),-21.2
19,CC1CCCC(C)N1C(=O)COC(=O)C1CCN(S(=O)(=O)c2c(Cl)cccc2Cl)CC1 (centres unmarked),-30.1
20,Cc1cc(OCC(=O)Nc2ccncc2)cc(C)c1Cl,6.51
21,O=C(Nc1cccc(NC(=O)C2CCCO2)c1)c1ccco1 (centres unmarked),24.2
22,COc1ccc(Oc2c(C)oc3c(CN4CCOCC4)c(O)ccc3c2=O)cc1,11.5
23,CC(=O)N[C@@H]1c2c(ccc3ccccc23)OC[C@@H]1COC(C)=O,-41.8

row,Compound,"hERG current change (%, negative = inhibition) at 10uM [%]"
1,CSc1nc2ccccc2n1Cc1c(Cl)cccc1Cl,4.46
2,CCOP(=O)(OCC)c1nc(/C=C/c2ccccc2)oc1NCc1ccccc1,5.07
3,COc1ccc(OC)c(CN(CCN2CCOCC2)C(=O)Nc2cccc(Cl)c2)c1,-22
4,O=C(COCc1cc(-c2ccc3c(c2)OCO3)on1)N1CCCCC1,4.66
5,C=CCn1cc(C(=O)OC)c(=O)c2cc(S(=O)(=O)N(CC)CC)ccc21,-7.93
6,Cc1ccc(O)c(C(=O)CC(=O)c2ccccc2Cl)c1,36.2
7,COC(=O)C1=C(C)Nc2nc3ccccc3n2C1c1ccccc1F (centres unmarked),10.9
8,O=C(CCn1c(=O)oc2ccccc21)n1c(=O)oc2ccccc21,20.7
9,Cc1cccc(-n2nnnc2SCC(=O)c2cc(C)n(Cc3ccco3)c2C)c1,-11.3
10,COc1ccc(C)c2sc(N(CCN(C)C)C(=O)/C=C/c3cccs3)nc12.Cl,5.89
11,C=C(C)c1cccc(C(C)(C)NC(=O)N2CCN(CC)CC2)c1,7.13
12,Cc1ccnc2c1ccc1c(C)ccnc12.O,9.2
13,Cc1ccc(N(CC(=O)NC(C)(C)C)C(=O)CNC(=O)c2cccs2)c(C)c1,9.15
14,CCOc1cccc(-c2nc3cc(C)ccc3o2)c1,22.2
15,CC(=O)Nc1cccc(NC(=O)c2c(-c3c(Cl)cccc3Cl)noc2C)c1,-14.9
16,Cc1ccn2c(NC3CCCCC3)c(C)nc2c1,-20
17,Nc1nonc1C(=O)NCCNS(=O)(=O)c1ccc(Br)cc1,-28
18,CCCCCN(C(=O)CCC(=O)OCc1ccccc1F)c1c(N)n(CCCC)c(=O)[nH]c1=O,12.9
19,CCOc1ccc(C2c3cc(OC)c(OC)cc3CC(=O)N2c2ccccc2)cc1 (centres unmarked),-26.5
20,COc1ccc(/C=N/NC(=O)CNC(=O)c2ccc(S(=O)(=O)N3CCOCC3)cc2)cc1OC,-9.23
21,CC(NC(=O)c1ccccc1O)c1ccccc1 (centres unmarked),-21
22,CCn1cnc2cc(NCc3cccs3)ccc21,-15.9
23,CN(c1ccc(C(=O)Nc2ccc(Cl)cn2)cc1)S(=O)(=O)c1ccccc1,-28.2

row,Compound,"hERG current change (%, negative = inhibition) at 10uM [%]"
1,Cc1ccccc1/C=C1\OC(=O)c2ccccc21,-4.37
2,N/C(=N\OC(=O)Cc1cccs1)c1ccc(Cl)cc1,9.19
3,O=C(Nc1nc2ccc([N+](=O)[O-])cc2s1)c1ccco1,39.5
4,O=C(COc1ccc([N+](=O)[O-])cc1)NNC(=O)c1cccs1,-11.6
5,COCCN(C(=O)COC(=O)c1cccnc1Cl)c1c(N)n(Cc2ccccc2)c(=O)[nH]c1=O,10.2
6,O=C(Nc1ccccc1F)c1cnccn1,23.1
7,Cc1ccccc1/C=C/c1nc2ccccc2c(=O)n1Cc1ccccc1,-3.27
8,O=c1c(-c2cc3ccccc3o2)[n+]([O-])c2ccccc2n1OCc1ccccn1,-15.4
9,CCCc1nnc(NC(=O)CCC(=O)N2CCN(Cc3ccc(OC)c(F)c3)CC2)s1,-28.3
10,O=C(c1ccccc1)N1CCN(c2ncccn2)CC1,17.6
11,Cc1nc2cc(CO)ccc2s1,9.23
12,CCc1ccc(C)c(OC(=O)c2cncc(Br)c2)c1,14.9
13,Cn1c(=S)n(CCC(=O)O)c2ccccc21,20.2
14,Cc1cccc(C(=O)NNC(=O)CCC(=O)Nc2cccc(Cl)c2C)c1,9.03
15,COCCNC(=O)C(c1ccc(O)cc1)N(Cc1cccs1)C(=O)CCC(=O)Nc1ccccn1 (centres unmarked),19.9
16,CCCC(=O)Nc1ccc2c(c1)C(=O)NC2=O,6.93
17,O=C(COC(=O)c1ccc[nH]c1=O)NCCc1ccc(Cl)cc1Cl,6.66
18,COC(=O)C1(S(=O)(=O)c2cc(Br)cc3c2N(C(C)=O)CC3)CC1,1.59
19,COC(=O)C1CC(=O)N(c2ccc(OCc3ccccc3Cl)cc2)C1 (centres unmarked),-19.2
20,Fc1ccc(OCCOCCOc2cccc3[nH]ccc23)cc1,-25.4
